# Source: the supplement of paper PMC8728848
# The list shows a part of the results.
# Key:
# Assay in all cases: glycan array binding signal (z-score within array); higher = stronger binding
# Details in all cases: glycan notation: IUPAC condensed, linker removed
# [1] = target: Gal(a1-6)Glc
# In short: (§1)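 Arrays were curated from the Consortium for Functional Glycomics database, 3228 in total, and kept only where the protein sequence was available. Binding is expressed as a within-array Z-score. This score was averaged across arrays of the same protein sequence at different concentrations or buffers and across linkers, and negative values can be read as non-binding.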
# [2] = target: Gal(b1-2)Gal
# In short: as §1
# [3] = target: Gal(b1-3)Gal
# In short: as §1
# [4] = target: Gal(b1-3)Gal(b1-4)GlcNAc
# In short: as §1
# [5] = target: Gal(b1-3)GalNAc
# In short: as §1
# [6] = target: Gal(b1-3)GalNAc(a1-3)[Fuc(a1-2)]Gal(b1-4)Glc
# In short: as §1
# [7] = target: Gal(b1-3)GalNAc(a1-3)[Fuc(a1-2)]Gal(b1-4)GlcNAc
# In short: as §1
# [8] = target: Gal(b1-3)GalNAc(b1-3)Gal
# In short: as §1
# [9] = target: Gal(b1-3)GalNAc(b1-3)Gal(a1-4)Gal(b1-4)Glc
# In short: as §1
# [10] = target: Gal(b1-3)GalNAc(b1-4)Gal(b1-4)Glc
# In short: as §1
# [11] = target: Gal(b1-3)GalNAc(b1-4)[Neu5Ac(a2-3)]Gal(b1-4)Glc
# In short: as §1
# [12] = target: Gal(b1-3)GlcNAc
# In short: as §1
# [13] = target: Gal(b1-3)GlcNAc(a1-3)Gal(b1-4)GlcNAc
# In short: as §1
# [14] = target: Gal(b1-3)GlcNAc(a1-6)Gal(b1-4)GlcNAc
# In short: as §1
# [15] = target: Gal(b1-3)GlcNAc(b1-2)Man
# In short: as §1
# [16] = target: Gal(b1-3)GlcNAc(b1-2)Man(a1-3)[Gal(b1-3)GlcNAc(b1-2)Man(a1-6)]Man(b1-4)GlcNAc(b1-4)GlcNAc
# In short: as §1
# [17] = target: Gal(b1-3)GlcNAc(b1-2)Man(a1-3)[Gal(b1-3)GlcNAc(b1-2)Man(a1-6)]Man(b1-4)GlcNAc(b1-4)[Fuc(a1-6)]GlcNAc
# In short: as §1
# [18] = target: Gal(b1-3)GlcNAc(b1-2)Man(a1-3)[GlcNAc(b1-4)][Gal(b1-3)GlcNAc(b1-2)Man(a1-6)]Man(b1-4)GlcNAc(b1-4)GlcNAc
# In short: as §1
# [19] = target: Gal(b1-3)GlcNAc(b1-2)[Gal(b1-3)GlcNAc(b1-6)]Man(a1-6)[Gal(b1-3)GlcNAc(b1-2)Man(a1-3)]Man(b1-4)GlcNAc(b1-4)GlcNAc
# In short: as §1
# [20] = target: Gal(b1-3)GlcNAc(b1-3)Gal(b1-3)GlcNAc
# In short: as §1
# [21] = target: Gal(b1-3)GlcNAc(b1-3)Gal(b1-4)Glc
# In short: as §1
# [22] = target: Gal(b1-3)GlcNAc(b1-3)Gal(b1-4)GlcNAc
# In short: as §1
# [23] = target: Gal(b1-3)GlcNAc(b1-3)Gal(b1-4)GlcNAc(b1-2)Man(a1-3)[Gal(b1-3)GlcNAc(b1-3)Gal(b1-4)GlcNAc(b1-2)Man(a1-6)]Man(b1-4)GlcNAc(b1-4)GlcNAc
# In short: as §1
# [24] = target: Gal(b1-3)GlcNAc(b1-3)Gal(b1-4)GlcNAc(b1-2)[Gal(b1-3)GlcNAc(b1-3)Gal(b1-4)GlcNAc(b1-6)]Man(a1-6)[Gal(b1-3)GlcNAc(b1-3)Gal(b1-4)GlcNAc(b1-2)Man(a1-3)]Man(b1-4)GlcNAc(b1-4)[Fuc(a1-6)]GlcNAc
# In short: as §1
# [25] = target: Gal(b1-3)GlcNAc(b1-3)Gal(b1-4)GlcNAc(b1-3)Gal(b1-4)GlcNAc(b1-2)[Gal(b1-3)GlcNAc(b1-3)Gal(b1-4)GlcNAc(b1-3)Gal(b1-4)GlcNAc(b1-6)]Man(a1-6)[Gal(b1-3)GlcNAc(b1-3)Gal(b1-4)GlcNAc(b1-3)Gal(b1-4)GlcNAc(b1-2)Man(a1-3)]Man(b1-4)GlcNAc(b1-4)[Fuc(a1-6)]GlcNAc
# In short: as §1
# [26] = target: Gal(b1-3)GlcNAc(b1-3)Gal(b1-4)GlcNAc(b1-6)[Gal(b1-3)GlcNAc(b1-3)]Gal(b1-4)Glc
# In short: as §1
# [27] = target: Gal(b1-3)GlcNAc(b1-3)Gal(b1-4)[Fuc(a1-3)]GlcNAc
# In short: as §1
# [28] = target: Gal(b1-3)GlcNAc(b1-3)Gal(b1-4)[Fuc(a1-3)]GlcNAc(b1-6)[Gal(b1-3)GlcNAc(b1-3)]Gal(b1-4)Glc
# In short: as §1
# [29] = target: Gal(b1-3)GlcNAc(b1-3)GalNAc
# In short: as §1
# [30] = target: Gal(b1-3)GlcNAc(b1-6)Gal(b1-4)GlcNAc
# In short: as §1
# [31] = target: Gal(b1-3)GlcNAc(b1-6)GalNAc
# In short: as §1
# [32] = target: Gal(b1-3)GlcNAc(b1-6)[Gal(b1-3)]GalNAc
# In short: as §1
# [33] = target: Gal(b1-3)GlcNAc6S
# In short: as §1
# [34] = target: Gal(b1-3)[Fuc(a1-4)]GlcNAc
# In short: as §1
# [35] = target: Gal(b1-3)[Fuc(a1-4)]GlcNAc(b1-2)Man
# In short: as §1
# [36] = target: Gal(b1-3)[Fuc(a1-4)]GlcNAc(b1-2)Man(a1-3)[Gal(b1-3)[Fuc(a1-4)]GlcNAc(b1-2)Man(a1-6)]Man(b1-4)GlcNAc(b1-4)[Fuc(a1-6)]GlcNAc
# In short: as §1
# [37] = target: Gal(b1-3)[Fuc(a1-4)]GlcNAc(b1-3)Gal(b1-3)[Fuc(a1-4)]GlcNAc
# In short: as §1
# [38] = target: Gal(b1-3)[Fuc(a1-4)]GlcNAc(b1-3)Gal(b1-4)[Fuc(a1-3)]GlcNAc
# In short: as §1
# [39] = target: Gal(b1-3)[Fuc(a1-4)]GlcNAc(b1-6)GalNAc
# In short: as §1
# [40] = target: Gal(b1-3)[GlcNAc(b1-6)]GalNAc
# In short: as §1
# [41] = target: Gal(b1-3)[Neu5Ac(a2-6)]GalNAc
# In short: as §1
# [42] = target: Gal(b1-3)[Neu5Ac(a2-6)]GlcNAc(b1-4)Gal(b1-4)Glc
# In short: as §1
# [43] = target: Gal(b1-3)[Neu5Ac(b2-6)]GalNAc
# In short: as §1
# [44] = target: Gal(b1-4)Gal
# In short: as §1
# [45] = target: Gal(b1-4)GalNAc(a1-3)[Fuc(a1-2)]Gal(b1-4)GlcNAc
# In short: as §1
binder,measurement,setting,value
APVPVTKLVCDGDTYKCTAYLDFGDGRWVAQWDTNVFHTG [PhoSpL (Pholiota squarrosa)],glycan array binding signal (z-score),[1],-0.091
same,glycan array binding signal (z-score),[2],-0.507
same,glycan array binding signal (z-score),[3],0.442
same,glycan array binding signal (z-score),[4],-0.413
same,glycan array binding signal (z-score),[5],-0.201
same,glycan array binding signal (z-score),[6],-0.282
same,glycan array binding signal (z-score),[7],-0.143
same,glycan array binding signal (z-score),[8],-0.201
same,glycan array binding signal (z-score),[9],0.377
same,glycan array binding signal (z-score),[10],0.095
same,glycan array binding signal (z-score),[11],-0.68
same,glycan array binding signal (z-score),[12],-0.41
same,glycan array binding signal (z-score),[13],-0.14
same,glycan array binding signal (z-score),[14],-0.121
same,glycan array binding signal (z-score),[15],0.744
same,glycan array binding signal (z-score),[16],0.027
same,glycan array binding signal (z-score),[17],6.05
same,glycan array binding signal (z-score),[18],-0.757
same,glycan array binding signal (z-score),[19],-0.346
same,glycan array binding signal (z-score),[20],-0.265
same,glycan array binding signal (z-score),[21],-1.16
same,glycan array binding signal (z-score),[22],0.175
same,glycan array binding signal (z-score),[23],-0.402
same,glycan array binding signal (z-score),[24],0.083
same,glycan array binding signal (z-score),[25],0.325
same,glycan array binding signal (z-score),[26],-0.292
same,glycan array binding signal (z-score),[27],0.037
same,glycan array binding signal (z-score),[28],0.054
same,glycan array binding signal (z-score),[29],-0.812
same,glycan array binding signal (z-score),[30],0.218
same,glycan array binding signal (z-score),[31],-0.381
same,glycan array binding signal (z-score),[32],-0.681
same,glycan array binding signal (z-score),[33],0.449
same,glycan array binding signal (z-score),[34],-0.078
same,glycan array binding signal (z-score),[35],-0.075
same,glycan array binding signal (z-score),[36],-0.05
same,glycan array binding signal (z-score),[37],-0.376
same,glycan array binding signal (z-score),[38],-0.256
same,glycan array binding signal (z-score),[39],-0.334
same,glycan array binding signal (z-score),[40],-0.226
same,glycan array binding signal (z-score),[41],0.006
same,glycan array binding signal (z-score),[42],-0.173
same,glycan array binding signal (z-score),[43],-0.431
same,glycan array binding signal (z-score),[44],-0.352
same,glycan array binding signal (z-score),[45],-0.219
